Measured values from PubChem BioAssay AID588453 (National Center for Advancing Translational Sciences (NCATS), 2011).
In all, about 390,000 compounds went through this assay and about 4,000 (1%) were called active. Inconclusive means that the source gave no clear call. Such entries were picked first, then a sample of the others. Calls follow the shape of the dose curve; as a rule, active = well fitted inhibition curve with a large enough effect; inconclusive = small, poorly fitted or top-dose-only effect; inactive = no such curve, though single readings can be large or run the other way. A potency beside an inconclusive call is a rough fit, not a confirmed value.

Molecular target: Thioredoxin reductase 1, cytoplasmic (Rattus norvegicus) (UniProt O89049)
UniProt O89049, sequence (O89049 whole entry, looked up): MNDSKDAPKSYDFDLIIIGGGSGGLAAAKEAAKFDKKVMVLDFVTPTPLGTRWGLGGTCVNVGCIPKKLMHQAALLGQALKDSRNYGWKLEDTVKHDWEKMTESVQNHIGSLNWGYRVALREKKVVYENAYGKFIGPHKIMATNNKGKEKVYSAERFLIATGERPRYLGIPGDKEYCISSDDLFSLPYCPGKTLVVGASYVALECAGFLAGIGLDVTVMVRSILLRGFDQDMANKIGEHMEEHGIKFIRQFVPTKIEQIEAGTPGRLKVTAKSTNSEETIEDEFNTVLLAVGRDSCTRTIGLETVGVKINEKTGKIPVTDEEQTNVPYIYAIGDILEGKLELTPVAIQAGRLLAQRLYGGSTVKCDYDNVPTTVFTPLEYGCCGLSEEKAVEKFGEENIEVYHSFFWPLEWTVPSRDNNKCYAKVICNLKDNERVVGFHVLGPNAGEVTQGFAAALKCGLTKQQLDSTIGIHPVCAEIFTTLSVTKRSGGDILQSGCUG
Assay: qHTS Assay for Inhibitors of Mammalian Selenoprotein Thioredoxin Reductase 1 (TrxR1): qHTS; also: nearly all actives have a fitted effect of over 65% in size
Details: recombinant rTrxR1, NADPH fluorescence consumption, selenite substrate; series mostly up to 114 µM; activity change, negative = inhibition: at the top concentration
Procedure, shortened: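 Rat TrxR1 (90 nM in the dispensed reagent) was pre-reduced with 400 uM NADPH for 5 min at room temperature, then incubated with compound for 15 min. After 400 uM selenite was added, NADPH fluorescence (Ex 340/Em 450 nm) was followed for 8 min.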
% is scaled to controls: 0 for no effect and ±100 for the full control effect; potency is read from the fitted curve at half-maximal effect; tags tell the direction and shape of the fitted curve.

Compound | activity change, negative = inhibition | Potency
COc1ccc(C(=O)Nc2cccc(-c3cnc4ccccc4n3)c2)cc1 | inactive: 1.64% | –
CC(C)(C)c1nnc(NC(=O)c2cccs2)s1 | – | inconclusive: 28.2 µM [inhibitor, single point]
Cc1ccc(-c2nn(-c3ccccc3)cc2NC(=O)CCl)cc1 | – | inconclusive: 44.7 µM [inhibitor, single point]
CN1C2CCC1/C(=C\c1ccccc1F)C(=O)/C2=C/c1ccccc1F | – | inconclusive: 14.1 µM [inhibitor, full curve]
Cc1coc2c1C(=O)C(=O)c1c-2ccc2c(C)cccc12 | – | inconclusive: 39.8 µM [inhibitor, partial curve]
CC(C)c1nc2ccc(C(=O)Nc3ccccc3F)cc2o1 | inactive: 10.4% [at 57.1 µM] | –
CCOC(=O)C1=NNC(C(=O)c2ccc(Cl)cc2)C1c1ccccc1 (centres undefined) | – | inconclusive: 79.4 µM [inhibitor, single point]
Cc1occc1C(=O)NC(C)C1CCCO1 (centres undefined) | – | inconclusive: 20 µM [inhibitor, single point]
COc1cccc(CNC(=O)c2ccc(-n3c(C)cc4c3CCC(C)C4)cc2)c1 (centres undefined) | – | inconclusive: 28.2 µM [inhibitor, partial curve, poor fit]
COC(=O)c1ccc2nc(NC(=O)C(C)(C)C)sc2c1 | inactive: 6.27% [at 57.1 µM] | –
CCOc1cc(/C=C2\C(=O)N(Cc3ccc(C)cc3)C(C)=C2C(=O)OC)ccc1O | – | active: 28.2 µM
C=CC(=O)Nc1ccc(CN2C(=O)N(c3c(Cl)c(OC)cc(OC)c3Cl)Cc3cnc(NCCCCN(CC)CC)nc32)cc1 | – | inconclusive: 17.8 µM [inhibitor, single point]
[O-][n+]1c(/C=C/c2ccccc2)ccc2ccccc21 | – | inconclusive: 89.1 µM [inhibitor, single point]
Cc1c(NN=C(C#N)C#N)c(=O)n(-c2ccccc2)n1C | – | inconclusive: 35.5 µM [inhibitor, single point]
Cc1ccc(/C=C2\SC(=S)N(c3c(C)n(C)n(-c4ccccc4)c3=O)C2=O)cc1 | inactive: -3.45% | –
Cc1ccc(CN2C(=O)CSC(C)C2=O)cc1 (centres undefined) | inactive: 19.2% | –
O=C(Nc1nc(-c2ccccn2)cs1)c1ccc([N+](=O)[O-])o1 | – | inconclusive: 44.7 µM [inhibitor, partial curve, poor fit]
O=C(CSc1nnc(C2CC2)n1-c1ccccc1)NCc1ccco1 | – | inconclusive: 70.8 µM [inhibitor, single point]
C=CCN1C(=O)/C(=C/c2ccc(-c3ccc(F)cc3)o2)SC1=S | – | inconclusive: 89.1 µM [inhibitor, single point]
COc1cccc(C2CC(=O)Nc3c2c(=O)[nH]c2nc4ccccc4n32)c1 (centres undefined) | inactive: 10.8% [at 11.4 µM] | –
C/C(=C\C(=S)Nc1ccccc1)Nc1ccc2ccccc2c1 | – | inconclusive: 12.6 µM [inhibitor, partial curve, poor fit]
COc1cc(/C=C2/C(=O)NN(c3cccc(C)c3)C2=O)ccc1OC(=O)c1ccco1 | – | inconclusive: 39.8 µM [inhibitor, single point]

Compound | activity change, negative = inhibition | Potency
CCOc1cc(C2c3c(n[nH]c3C)C(=O)N2c2ccc(Br)cc2)ccc1O (centres undefined) | – | inconclusive: 28.2 µM [inhibitor, partial curve, poor fit]
N=C1/C(=C/c2coc3ccccc3c2=O)C(=O)N=C2SC(c3ccco3)=NN12 | – | active: 50.1 µM
Cc1c(Cl)cccc1NC(=O)c1ccc2c(c1)CCCN2S(C)(=O)=O | inactive: 23.3% | –
C=C1NN(C)C(=O)N1c1ccc(OC)cc1 | inactive: 24.3% | –
COc1ccc(C(=O)N/N=C/c2ccccn2)cc1OC | inactive: -8.33% [at 57.1 µM] | –
NC(=O)c1nsc(C(=O)N(c2cccc(F)c2)C(C(=O)NCC2CCCO2)c2c[nH]c3ccccc23)c1N (centres undefined) | – | inconclusive: 44.7 µM [inhibitor, partial curve, poor fit]
O=S(=O)(Nc1c(Br)cc(Br)c2cccnc12)C1CC1 | – | inconclusive: 89.1 µM [inhibitor, single point]
COc1ccc(OCc2nnc3n2N=C(c2ccccc2)C(CC(=O)O)S3)cc1 (centres undefined) | – | inconclusive: 8.91 µM [inhibitor, partial curve, poor fit]
CC(C)Nc1nc2ccccc2c(=O)[nH]1 | inactive: 18.7% [at 57.1 µM] | –
O=C(/C=C/c1ccco1)NCC(=O)N/N=C/c1ccccc1[N+](=O)[O-] | – | active: 44.7 µM
CSc1nc(N(CCO)CCO)c2sc3nc(-c4ccco4)c4c(c3c2n1)CCC4 | – | inconclusive: 8.91 µM [inhibitor, partial curve]
Cc1cc(C(=O)COC(=O)c2ccc[nH]c2=O)c(C)n1-c1ccc(Br)cc1 | inactive: -2.54% | –
COc1ccc(C2NC(=O)NC(O)(C(F)(F)F)C2C(=O)c2ccccc2)cc1OC (centres undefined) | – | active: 28.2 µM
COc1cc(C=O)ccc1OC(=O)c1ccncc1 | – | inconclusive: 89.1 µM [inhibitor, partial curve, poor fit]
CCOc1ccccc1C(=O)NCc1ccco1 | – | inconclusive: 79.4 µM [inhibitor, single point]
CCOc1cc(CNc2ccc3c(c2)CCC3)ccc1O | – | inconclusive: 5.01 µM [inhibitor, full curve, poor fit]
COc1ccc(NC(C)=O)cc1S(=O)(=O)N1CCn2cccc2C1C (centres undefined) | – | active: 50.1 µM
Cc1ccc(C2C(C#N)=C(N)N(c3cccnc3)C3=C2C(=O)CCC3)c(C)c1 (centres undefined) | – | inconclusive: 89.1 µM [inhibitor, partial curve, poor fit]
C=CCOC(=O)C1=C(C)NC(SCC(=O)NC(=O)OCC)=C(C#N)C1c1cccnc1 (centres undefined) | – | inconclusive: 20 µM [inhibitor, full curve]
CCNC(=S)NNC(=O)c1cc(-c2ccccc2C)nc2ccccc12 | – | inconclusive: 15.8 µM [inhibitor, single point]
CC(=O)C1=C(C)NC(=S)NC1c1cc([N+](=O)[O-])ccc1O (centres undefined) | – | inconclusive: 79.4 µM [inhibitor, single point]
CC(=O)c1cc(F)c(N2CCN(C(=O)COc3ccccc3F)CC2)cc1C | – | inconclusive: 70.8 µM [inhibitor, single point]
